# Some of the results follow.
# Experiments:
# Assay in all cases: glycan array binding signal (z-score within array); higher = stronger binding
# Details in all cases: glycan notation: IUPAC condensed, linker removed
# [1] = biological target: Gal(b1-3)GlcNAc(b1-2)Man(a1-3)[Gal(b1-3)GlcNAc(b1-2)Man(a1-6)]Man(b1-4)GlcNAc(b1-4)GlcNAc
# Method in brief: (§1)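 The binding signal is a Z-score computed within each array. Data were drawn from 3228 arrays in the Consortium for Functional Glycomics database, restricted to those with a known protein sequence. Scores were averaged over arrays of the same protein sequence at different concentrations or buffers, and over linkers, and negative values can be taken as non-binding.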
# [2] = biological target: Gal(b1-3)GlcNAc(b1-2)Man(a1-3)[Gal(b1-3)GlcNAc(b1-2)Man(a1-6)]Man(b1-4)GlcNAc(b1-4)[Fuc(a1-6)]GlcNAc
# Method in brief: as §1
# [3] = biological target: Gal(b1-3)GlcNAc(b1-2)Man(a1-3)[GlcNAc(b1-4)][Gal(b1-3)GlcNAc(b1-2)Man(a1-6)]Man(b1-4)GlcNAc(b1-4)GlcNAc
# Method in brief: as §1
# [4] = biological target: Gal(b1-3)GlcNAc(b1-2)[Gal(b1-3)GlcNAc(b1-6)]Man(a1-6)[Gal(b1-3)GlcNAc(b1-2)Man(a1-3)]Man(b1-4)GlcNAc(b1-4)GlcNAc
# Method in brief: as §1
# [5] = biological target: Gal(b1-3)GlcNAc(b1-3)Gal(b1-3)GlcNAc
# Method in brief: as §1
# [6] = biological target: Gal(b1-3)GlcNAc(b1-3)Gal(b1-4)Glc
# Method in brief: as §1
# [7] = biological target: Gal(b1-3)GlcNAc(b1-3)Gal(b1-4)GlcNAc
# Method in brief: as §1
# [8] = biological target: Gal(b1-3)GlcNAc(b1-3)Gal(b1-4)GlcNAc(b1-2)Man(a1-3)[Gal(b1-3)GlcNAc(b1-3)Gal(b1-4)GlcNAc(b1-2)Man(a1-6)]Man(b1-4)GlcNAc(b1-4)GlcNAc
# Method in brief: as §1
# [9] = biological target: Gal(b1-3)GlcNAc(b1-3)Gal(b1-4)GlcNAc(b1-2)[Gal(b1-3)GlcNAc(b1-3)Gal(b1-4)GlcNAc(b1-6)]Man(a1-6)[Gal(b1-3)GlcNAc(b1-3)Gal(b1-4)GlcNAc(b1-2)Man(a1-3)]Man(b1-4)GlcNAc(b1-4)[Fuc(a1-6)]GlcNAc
# Method in brief: as §1
# [10] = biological target: Gal(b1-3)GlcNAc(b1-3)Gal(b1-4)GlcNAc(b1-3)Gal(b1-4)GlcNAc(b1-2)[Gal(b1-3)GlcNAc(b1-3)Gal(b1-4)GlcNAc(b1-3)Gal(b1-4)GlcNAc(b1-6)]Man(a1-6)[Gal(b1-3)GlcNAc(b1-3)Gal(b1-4)GlcNAc(b1-3)Gal(b1-4)GlcNAc(b1-2)Man(a1-3)]Man(b1-4)GlcNAc(b1-4)[Fuc(a1-6)]GlcNAc
# Method in brief: as §1
# [11] = biological target: Gal(b1-3)GlcNAc(b1-3)Gal(b1-4)GlcNAc(b1-6)[Gal(b1-3)GlcNAc(b1-3)]Gal(b1-4)Glc
# Method in brief: as §1
# [12] = biological target: Gal(b1-3)GlcNAc(b1-3)Gal(b1-4)[Fuc(a1-3)]GlcNAc
# Method in brief: as §1
# [13] = biological target: Gal(b1-3)GlcNAc(b1-3)Gal(b1-4)[Fuc(a1-3)]GlcNAc(b1-6)[Gal(b1-3)GlcNAc(b1-3)]Gal(b1-4)Glc
# Method in brief: as §1
# [14] = biological target: Gal(b1-3)GlcNAc(b1-3)GalNAc
# Method in brief: as §1
# [15] = biological target: Gal(b1-3)GlcNAc(b1-6)Gal(b1-4)GlcNAc
# Method in brief: as §1
# [16] = biological target: Gal(b1-3)GlcNAc(b1-6)GalNAc
# Method in brief: as §1
# [17] = biological target: Gal(b1-3)GlcNAc(b1-6)[Gal(b1-3)]GalNAc
# Method in brief: as §1
# [18] = biological target: Gal(b1-3)GlcNAc6S
# Method in brief: as §1
# [19] = biological target: Gal(b1-3)[Fuc(a1-4)]GlcNAc
# Method in brief: as §1
# [20] = biological target: Gal(b1-3)[Fuc(a1-4)]GlcNAc(b1-2)Man
# Method in brief: as §1
# [21] = biological target: Gal(b1-3)[Fuc(a1-4)]GlcNAc(b1-2)Man(a1-3)[Gal(b1-3)[Fuc(a1-4)]GlcNAc(b1-2)Man(a1-6)]Man(b1-4)GlcNAc(b1-4)[Fuc(a1-6)]GlcNAc
# Method in brief: as §1
# [22] = biological target: Gal(b1-3)[Fuc(a1-4)]GlcNAc(b1-3)Gal(b1-3)[Fuc(a1-4)]GlcNAc
# Method in brief: as §1
# [23] = biological target: Gal(b1-3)[Fuc(a1-4)]GlcNAc(b1-3)Gal(b1-4)[Fuc(a1-3)]GlcNAc
# Method in brief: as §1
# [24] = biological target: Gal(b1-3)[Fuc(a1-4)]GlcNAc(b1-6)GalNAc
# Method in brief: as §1
# [25] = biological target: Gal(b1-3)[GlcNAc(b1-6)]GalNAc
# Method in brief: as §1
# [26] = biological target: Gal(b1-3)[Neu5Ac(a2-6)]GalNAc
# Method in brief: as §1
# [27] = biological target: Gal(b1-3)[Neu5Ac(a2-6)]GlcNAc(b1-4)Gal(b1-4)Glc
# Method in brief: as §1
# [28] = biological target: Gal(b1-3)[Neu5Ac(b2-6)]GalNAc
# Method in brief: as §1
# [29] = biological target: Gal(b1-4)Gal
# Method in brief: as §1
# [30] = biological target: Gal(b1-4)GalNAc(a1-3)[Fuc(a1-2)]Gal(b1-4)GlcNAc
# Method in brief: as §1
binder,measurement,setting,value
"CC1G-10077 (Coprinopsis cinerea), A8NDT7 (protein) MALNEGVYWIRNSRFTNKVLDLDAANVAKGTSILDFNEHGTFNENHNQLWIVERFQSRDTYLIRSVHSNLVLDLSQGLSANGTPILCWTQHGGTNQQWRIEWVKDDNKTPLYRIVSVATGTAISHNEDDSSAYTVAWSVDDGPKQLWSFDPFVTPLLYRLRVKSTSRVLDLAAASADNGTLALAWEQHTAITKRNQLWWLPYRSGAEEYTIQCLETSTVADLSGGNSGNGTPIYGWQSHGGRNQQWKFEPTSDSGDYYHIKNVEGGSVMDAYMNDSQKRVGGWSNNGGDNQKWLLDPLPSPGPGWVLIQNGGTGKFLCSTPSGDIGTADGPETVYDYSVQWRFIQREYTGVYHVVNRATGAYLRQIGTSMPSIGLAEENDDELKDWWMLETYDNSEIGLASIISRWTGNVLDHYGGVSVQALDNNTENSYRSWAIIPARDWLTSFSLVNGQGGLCLAAQYAREETRLSTTANVNDFHAQWVFRKPSGSSGYTIQNKYNNHYVGGTSARWELVVCCNKYFGIRNTSTQKYLAIEDGQVTFQDQDMTDRKQCWELCSGRATDTSGNDYDLIYMDDDLLEVMIPWVGDKQGDLKHYIEKRATKKPPKDKGGWQLPAAGLIKKPKFNDIRQLLQELIEQWEWDVVNEEREQIQTLVSIDEAEARRLLGRRPHPDIVAAYQRSRSSTLFRIDRQGYFNIAGDRYVNIQGQYGDDSYFHIALPVGVRFGREQIRRFLRDSLDRSTSVTITPTTCKPPSGGPDYNRDPDSDGDNSWIKWTIAVVGTSAIKHSEL",glycan array binding signal (z-score),[1],1.39
same,glycan array binding signal (z-score),[2],0.598
same,glycan array binding signal (z-score),[3],1.23
same,glycan array binding signal (z-score),[4],1.07
same,glycan array binding signal (z-score),[5],0.08
same,glycan array binding signal (z-score),[6],0.089
same,glycan array binding signal (z-score),[7],0.142
same,glycan array binding signal (z-score),[8],0.603
same,glycan array binding signal (z-score),[9],0.686
same,glycan array binding signal (z-score),[10],1.32
same,glycan array binding signal (z-score),[11],1.96
same,glycan array binding signal (z-score),[12],0.199
same,glycan array binding signal (z-score),[13],0.849
same,glycan array binding signal (z-score),[14],-0.054
same,glycan array binding signal (z-score),[15],2.12
same,glycan array binding signal (z-score),[16],0.815
same,glycan array binding signal (z-score),[17],-0.082
same,glycan array binding signal (z-score),[18],-0.281
same,glycan array binding signal (z-score),[19],-0.466
same,glycan array binding signal (z-score),[20],-0.347
same,glycan array binding signal (z-score),[21],-0.361
same,glycan array binding signal (z-score),[22],-0.438
same,glycan array binding signal (z-score),[23],-0.469
same,glycan array binding signal (z-score),[24],-0.201
same,glycan array binding signal (z-score),[25],0.35
same,glycan array binding signal (z-score),[26],-0.431
same,glycan array binding signal (z-score),[27],-0.294
same,glycan array binding signal (z-score),[28],-0.348
same,glycan array binding signal (z-score),[29],-0.402
same,glycan array binding signal (z-score),[30],0.803

# — the supplement of paper PMC8728848
